Assay results: the supplement of paper PMC10369915
Some of the results follow. No stated cut-off is given here; in the data, active = 3.2 or more and inactive = the rest. The signal is at background level for most entries.

B1: ELMO1_HUMAN_720 (peptide)
chain: IPKEPSNYDFVYDCN
B2: ELP3_HUMAN_202_YA (peptide)
chain: GHTSNNIYEAVKASE
B3: EMAL4_HUMAN_226 (peptide)
chain: IINQEGEYIKMFMRG
B4: EMD_HUMAN_155 (peptide)
chain: KDRERPMYGRDSAYQ
B5: EMD_HUMAN_161 (peptide)
chain: MYGRDSAYQSITHYR
B6: EMD_HUMAN_161_YA (peptide)
chain: MAGRDSAYQSITHAR
B7: EMD_HUMAN_167 (peptide)
chain: AYQSITHYRPVSASR
B8: EMD_HUMAN_167_YA (peptide)
chain: AAQSITHYRPVSASR
B9: ACTN1_HUMAN_12 (peptide)
chain: DSQQTNDYMQPEEDW
B10: EMD_HUMAN_59 (peptide)
chain: SSSAASSYSFSDLNS
B11: EMD_HUMAN_74 (peptide)
chain: TRGDADMYDLPKKED
B12: 1A80_HUMAN_344 (peptide)
chain: SVRKGGSYSQAASSD
B13: ENOA_HUMAN_287_YA (peptide)
chain: AKSFIKDYPVVSIED
B14: ENOA_HUMAN_44 (peptide)
chain: SGASTGIYEALELRD
B15: EP15R_HUMAN_564 (peptide)
chain: AHRSLEQYDQVLDGA
B16: EP15R_HUMAN_74 (peptide)
chain: FLDKQGFYVALRLVA
B17: EPHA1_HUMAN_930 (peptide)
chain: ESIRMKRYILHFHSA
B18: EPHA2_HUMAN_921 (peptide)
chain: ESIKMQQYTEHFMAA

Target: SHP2 C-SH2 domain E139D
Test: enrichment score (SH2-bound / input frequency) (ratio); bacterial display of known human phosphotyrosine sites (pTyr-Var adds point mutants) read by sequencing; higher = stronger binding; tyrosines were phosphorylated by kinases first
Conditions: peptide library: Human pTyr
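Further: displayed peptides selected on beads carrying the immobilized SH2 domain, with library peptides lacking any tyrosine serving as negative controls.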

Enrichment score, inactive:
B1 1.13, B2 0.849, B3 1.2, B4 1.45, B5 0.896, B6 0.831, B7 1.26, B8 1.23, B9 1.44, B10 0.665, B11 0.981, B12 0.637, B13 0.838, B14 0.572, B15 0.724, B16 1.77, B17 1.91, B18 0.713

Target: SHP2 C-SH2 domain wild-type
Test: as above
Conditions: peptide library: Human pTyr

Enrichment score, inactive:
B1 0.959, B2 0.785, B3 0.935, B4 1.41, B5 0.907, B6 0.842, B7 1.74, B8 1.14, B9 1.02, B10 0.489, B11 0.798, B12 0.557, B13 0.817, B14 0.585, B15 0.619, B16 1.58, B17 1.99, B18 0.693

Target: SHP2 N-SH2 domain L43F
Test: as above
Conditions: peptide library: Human pTyr

Enrichment score, inactive:
B1 0.901, B2 0.954, B3 1.03, B4 1.33, B5 0.924, B6 0.686, B7 1.42, B8 0.856, B9 1.01, B10 0.642, B11 0.831, B12 0.622, B13 1.01, B14 0.594, B15 0.731, B16 2.1, B17 1.78, B18 0.788

Target: SHP2 N-SH2 domain T42A
Test: as above
Conditions: peptide library: Human pTyr

Enrichment score, inactive:
B1 0.949, B2 0.75, B3 0.846, B4 1.3, B5 0.828, B6 0.926, B7 1.68, B8 1.3, B9 1.19, B10 0.582, B11 0.705, B12 0.615, B13 0.75, B14 0.527, B15 0.722, B16 2.17, B17 1.74, B18 0.768

Target: SHP2 N-SH2 domain T52S
Test: as above
Conditions: peptide library: Human pTyr

Enrichment score, inactive:
B1 1.06, B2 0.941, B3 1.17, B4 1.42, B5 0.76, B6 1.05, B7 1.62, B8 1.15, B9 1.08, B10 0.538, B11 1.36, B12 0.662, B13 0.783, B14 0.6, B15 0.937, B16 2.26, B17 2.08, B18 0.82

Target: SHP2 N-SH2 domain wild-type
Test: as above
Conditions: peptide library: Human pTyr

Enrichment score, inactive:
B1 1.03, B2 0.919, B3 0.813, B4 1.49, B5 0.925, B6 1.11, B7 1.83, B8 1.13, B9 1.43, B10 0.585, B11 0.999, B12 0.493, B13 1.06, B14 0.863, B15 0.766, B16 2.34, B17 2.63, B18 0.699
